# Results from the supplement of paper PMC8728848.
# The list shows a part of the results.
# B1: LSL-150 (Laetiporus sulphureus), Q7Z8V1 (protein)
# chain: MTDIYIPPEGLYFRLLGFASRQVIFARNSPSPDVGLSPVNDQATDQYFSLIYGTGEHAGLYAIKSKATGKVLFSRRPAEPYVGQIDGDGRYPDNWFKIEPGKTYLSKYFRLVQPSTGTALVSRTHLQPYFWNHPQTEVFDDQYFTFLFEDHHHHHH
# Legend:
# Test in all cases: glycan array binding signal (z-score within array); higher = stronger binding
# Conditions in all cases: glycan notation: IUPAC condensed, linker removed
# [1] = biological target: Gal(b1-4)GlcNAc(b1-3)Gal(b1-4)GlcNAc(b1-3)[Gal(b1-4)GlcNAc(b1-3)Gal(b1-4)GlcNAc(b1-6)]GalNAc
# Outline: (§1)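 Columns mapping to the same glycan were averaged after glycan names were converted to IUPAC-condensed notation. The data come from 3228 arrays in the Consortium for Functional Glycomics database, limited to those with an available protein sequence. Binding is reported as a within-array Z-score averaged across arrays of one protein sequence and across linkers.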
# [2] = biological target: Gal(b1-4)GlcNAc(b1-3)Gal(b1-4)GlcNAc(b1-6)[Gal(b1-3)]GalNAc
# Outline: as §1
# [3] = biological target: Gal(b1-4)GlcNAc(b1-3)Gal(b1-4)[Fuc(a1-3)]GlcNAc(b1-3)Gal(b1-4)[Fuc(a1-3)]GlcNAc
# Outline: as §1
# [4] = biological target: Gal(b1-4)GlcNAc(b1-3)GalNAc
# Outline: as §1
# [5] = biological target: Gal(b1-4)GlcNAc(b1-3)[Fuc(a1-3)GlcNAc(b1-6)]Gal(b1-4)Glc
# Outline: as §1
# [6] = biological target: Gal(b1-4)GlcNAc(b1-3)[Gal(b1-4)GlcNAc(b1-6)]Gal(b1-4)GlcNAc
# Outline: as §1
# [7] = biological target: Gal(b1-4)GlcNAc(b1-3)[GlcNAc(b1-6)]Gal(b1-4)GlcNAc
# Outline: as §1
# [8] = biological target: Gal(b1-4)GlcNAc(b1-6)Gal(b1-4)GlcNAc
# Outline: as §1
# [9] = biological target: Gal(b1-4)GlcNAc(b1-6)GalNAc
# Outline: as §1
# [10] = biological target: Gal(b1-4)GlcNAc(b1-6)[Gal(b1-3)]GalNAc
# Outline: as §1
# [11] = biological target: Gal(b1-4)GlcNAc(b1-6)[Gal(b1-4)GlcNAc(b1-3)]GalNAc
# Outline: as §1
# Gal(b1-4)GlcNAc6P = biological target: Gal(b1-4)GlcNAc6P
# Outline: as §1
# Gal(b1-6)Gal = biological target: Gal(b1-6)Gal
# Outline: as §1
# Gal3S(b1-3)GalNAc = biological target: Gal3S(b1-3)GalNAc
# Outline: as §1
# Gal3S(b1-3)GlcNAc = biological target: Gal3S(b1-3)GlcNAc
# Outline: as §1
# [12] = biological target: Gal3S(b1-3)[Fuc(a1-4)]GlcNAc
# Outline: as §1
# Gal3S(b1-4)Glc = biological target: Gal3S(b1-4)Glc
# Outline: as §1
# Gal3S(b1-4)Glc6S = biological target: Gal3S(b1-4)Glc6S
# Outline: as §1
# Gal3S(b1-4)GlcNAc = biological target: Gal3S(b1-4)GlcNAc
# Outline: as §1
# [13] = biological target: Gal3S(b1-4)[Fuc(a1-3)]Glc6S
# Outline: as §1
# [14] = biological target: Gal3S(b1-4)[Fuc(a1-3)]GlcNAc
# Outline: as §1
# [15] = biological target: Gal3S(b1-4)[Fuc(a1-3)]GlcNAc6S
# Outline: as §1
# Gal3S4S(b1-4)GlcNAc = biological target: Gal3S4S(b1-4)GlcNAc
# Outline: as §1
# Gal3S6S(b1-4)GlcNAc = biological target: Gal3S6S(b1-4)GlcNAc
# Outline: as §1
# Gal3S6S(b1-4)GlcNAc6S = biological target: Gal3S6S(b1-4)GlcNAc6S
# Outline: as §1
# Gal4S(b1-4)GlcNAc = biological target: Gal4S(b1-4)GlcNAc
# Outline: as §1
# Gal4S6S(b1-4)GlcNAc = biological target: Gal4S6S(b1-4)GlcNAc
# Outline: as §1
# Gal6P(b1-4)GlcNAc = biological target: Gal6P(b1-4)GlcNAc
# Outline: as §1
# Gal6S(b1-3)GlcNAc = biological target: Gal6S(b1-3)GlcNAc
# Outline: as §1
# Gal6S(b1-3)GlcNAc6S = biological target: Gal6S(b1-3)GlcNAc6S
# Outline: as §1
# Gal6S(b1-4)Glc = biological target: Gal6S(b1-4)Glc
# Outline: as §1
# Gal6S(b1-4)Glc6S = biological target: Gal6S(b1-4)Glc6S
# Outline: as §1
# Gal6S(b1-4)GlcNAc = biological target: Gal6S(b1-4)GlcNAc
# Outline: as §1
# Gal6S(b1-4)GlcNAc6S = biological target: Gal6S(b1-4)GlcNAc6S
# Outline: as §1
# GalNAc(a1-3)Gal = biological target: GalNAc(a1-3)Gal
# Outline: as §1
# GalNAc(a1-3)GalNAc = biological target: GalNAc(a1-3)GalNAc
# Outline: as §1
# [16] = biological target: GalNAc(a1-3)GalNAc(b1-3)Gal(a1-4)Gal(b1-4)Glc
# Outline: as §1
# [17] = biological target: GalNAc(a1-3)GalNAc(b1-3)Gal(a1-4)Gal(b1-4)GlcNAc
# Outline: as §1
# GalNAc(b1-3)Gal = biological target: GalNAc(b1-3)Gal
# Outline: as §1
# [18] = biological target: GalNAc(b1-3)Gal(a1-4)Gal(b1-4)GlcNAc
# Outline: as §1
# [19] = biological target: GalNAc(b1-3)Gal(a1-4)Gal(b1-4)GlcNAc(b1-3)Gal(b1-4)Glc
# Outline: as §1
# [20] = biological target: GalNAc(b1-3)Gal(a1-6)Gal(b1-4)Glc
# Outline: as §1
# GalNAc(b1-3)GalNAc = biological target: GalNAc(b1-3)GalNAc
# Outline: as §1
# GalNAc(b1-3)GlcNAc = biological target: GalNAc(b1-3)GlcNAc
# Outline: as §1
# GalNAc(b1-4)Gal(b1-4)Glc = biological target: GalNAc(b1-4)Gal(b1-4)Glc
# Outline: as §1
binder,measurement,setting,value
B1,glycan array binding signal (z-score),[1],0.034
same,glycan array binding signal (z-score),[2],-0.172
same,glycan array binding signal (z-score),[3],-0.186
same,glycan array binding signal (z-score),[4],-0.204
same,glycan array binding signal (z-score),[5],-0.212
same,glycan array binding signal (z-score),[6],-0.185
same,glycan array binding signal (z-score),[7],-0.206
same,glycan array binding signal (z-score),[8],-0.206
same,glycan array binding signal (z-score),[9],-0.207
same,glycan array binding signal (z-score),[10],-0.203
same,glycan array binding signal (z-score),[11],-0.196
same,glycan array binding signal (z-score),Gal(b1-4)GlcNAc6P,-0.208
same,glycan array binding signal (z-score),Gal(b1-6)Gal,-0.209
same,glycan array binding signal (z-score),Gal3S(b1-3)GalNAc,-0.2
same,glycan array binding signal (z-score),Gal3S(b1-3)GlcNAc,-0.197
same,glycan array binding signal (z-score),[12],-0.2
same,glycan array binding signal (z-score),Gal3S(b1-4)Glc,-0.196
same,glycan array binding signal (z-score),Gal3S(b1-4)Glc6S,-0.193
same,glycan array binding signal (z-score),Gal3S(b1-4)GlcNAc,-0.202
same,glycan array binding signal (z-score),[13],-0.182
same,glycan array binding signal (z-score),[14],-0.205
same,glycan array binding signal (z-score),[15],-0.2
same,glycan array binding signal (z-score),Gal3S4S(b1-4)GlcNAc,-0.206
same,glycan array binding signal (z-score),Gal3S6S(b1-4)GlcNAc,-0.193
same,glycan array binding signal (z-score),Gal3S6S(b1-4)GlcNAc6S,-0.193
same,glycan array binding signal (z-score),Gal4S(b1-4)GlcNAc,-0.188
same,glycan array binding signal (z-score),Gal4S6S(b1-4)GlcNAc,-0.198
same,glycan array binding signal (z-score),Gal6P(b1-4)GlcNAc,-0.21
same,glycan array binding signal (z-score),Gal6S(b1-3)GlcNAc,-0.203
same,glycan array binding signal (z-score),Gal6S(b1-3)GlcNAc6S,-0.208
same,glycan array binding signal (z-score),Gal6S(b1-4)Glc,-0.199
same,glycan array binding signal (z-score),Gal6S(b1-4)Glc6S,-0.196
same,glycan array binding signal (z-score),Gal6S(b1-4)GlcNAc,-0.206
same,glycan array binding signal (z-score),Gal6S(b1-4)GlcNAc6S,-0.204
same,glycan array binding signal (z-score),GalNAc(a1-3)Gal,-0.202
same,glycan array binding signal (z-score),GalNAc(a1-3)GalNAc,-0.205
same,glycan array binding signal (z-score),[16],-0.197
same,glycan array binding signal (z-score),[17],-0.205
same,glycan array binding signal (z-score),GalNAc(b1-3)Gal,-0.207
same,glycan array binding signal (z-score),[18],-0.183
same,glycan array binding signal (z-score),[19],-0.142
same,glycan array binding signal (z-score),[20],-0.202
same,glycan array binding signal (z-score),GalNAc(b1-3)GalNAc,-0.207
same,glycan array binding signal (z-score),GalNAc(b1-3)GlcNAc,-0.203
same,glycan array binding signal (z-score),GalNAc(b1-4)Gal(b1-4)Glc,-0.205
